# Laboratory results reported in PubChem BioAssay AID624296 (National Center for Advancing Translational Sciences (NCATS), 2012).
# Hit rate of the full screen: of about 350,000 compounds, about 9,900 (2.8%) were called active. Inconclusive results, whose numbers are uncertain, are shown with a selection of clear calls. Calls follow the shape of the dose curve; as a rule, active = well fitted activation curve with a large enough effect; inconclusive = small, poorly fitted or top-dose-only effect; inactive = no such curve, though single readings can be large or run the other way. Potencies of inconclusive entries are left out as doubtful fits.
# Assay: A quantitative high throughput screen for small molecules that induce DNA re-replication in MCF 10a normal breast cells. Also: nearly all actives have a fitted effect of over 50% in size. As to activity, positive = re-replication: % of control where 0% means no effect.
# Conditions: MCF 10A DNA re-replication, Hoechst nuclear intensity, 48 h; activity, positive = re-replication: at 46.1 µM (top of the series)
# Potency is read from the fitted curve at half-maximal effect; tags tell the direction and shape of the fitted curve.
Compound,Potency,"activity, positive = re-replication"
Cc1cccc(COc2ccc(/C=N/NC(=O)c3nnn(-c4nonc4N)c3COc3ccc(F)cc3)cc2)c1,active: 14.6 µM,–
Cc1ccc(O)c(-c2cc(-c3ccccc3F)[nH]n2)c1,"inconclusive [activator, single point]",–
Cc1nn(-c2ccccc2)c2c1C(c1ccc(O)c(O)c1)N1C(=N2)C(Nc2ccccc2)=Nc2ccccc21 (stereo not given),"inconclusive [activator, single point]",–
COCC(=O)NC1(c2nnnn2CCOC(=O)Nc2ccc(Cl)cc2)CCCCC1,"inconclusive [activator, single point]",–
Cc1cccc(Cc2cccc(C)c2O)c1O,"inconclusive [activator, single point]",–
COc1ccc(-c2cc(C(=O)Nc3cc(S(=O)(=O)N4CCOCC4)ccc3N3CCOCC3)c3ccccc3n2)cc1,active: 2.31 µM,–
COc1cccc(C2=CC(c3cc(OC)ccc3OC)n3nnnc3N2)c1 (stereo not given),"inconclusive [activator, single point]",–
COC(=O)c1ccccc1NC(=O)CN(c1ccc(C)cc1)S(C)(=O)=O,"inconclusive [activator, single point]",–
Cc1ccccc1CN1CCN(Cc2ccccc2C(F)(F)F)CC1,"inconclusive [activator, single point]",–
COc1ccc2[nH]c3c(c2c1)CCNC3C1CC=C(C)CC1 (stereo not given),active: 0.58 µM,–
CCCCc1cc2c(s1)CCCC/C2=N/O,"inconclusive [activator, single point]",–
CCOC(=O)CCCCC(=O)c1[nH]c(=O)[nH]c1CSc1nnc2c3ccccc3n(C(C)C)c2n1,inactive,–
O=C(Nc1nonc1-c1ccc(Cl)cc1)c1ccccc1,–,inactive: 1.09% [at 9.22 µM]
Cc1cc(-c2n[nH]c(=S)n2/N=C/c2c[nH]c3ccccc23)n[nH]1,"inconclusive [activator, single point]",–
COc1ccc(-c2nnn(-c3cc(Cl)cc(Cl)c3)c2N)cc1,"inconclusive [activator, single point]",–
O=C(Nc1ccc(Cc2ccncc2)cc1)c1ccc([N+](=O)[O-])o1,active: 3.66 µM,–
COc1cccc(CNC(=O)CN2CCC(c3nc4ccc(C)cc4[nH]3)CC2)c1,"inconclusive [activator, full curve]",–
CC(C)c1ccc(CN2CCC(C(=O)NCc3cccnc3)CC2)cc1,inactive,–
OCCN1CCN(c2ncnc3sc(-c4ccccc4)cc23)CC1,"inconclusive [activator, single point]",–
O=C(NCc1cccs1)C1CC(c2ccc(Cl)cc2)=NO1 (stereo not given),active: 9.2 µM,–
C/C(CC(=O)Nc1ccc(Cl)cc1Cl)=N\NC(=O)c1ccncc1,"inconclusive [activator, single point]",–
Cc1ccc(/C=N/NC(=O)CSc2nc3ccccc3n2C)s1,"inconclusive [activator, partial curve, poor fit]",–

Compound,Potency,"activity, positive = re-replication"
Cc1noc(C)c1CSCC(=O)Nc1nc2ccc(Oc3ccccc3)cc2s1,"inconclusive [activator, partial curve]",–
CCN(CC)CCN1C(=O)c2cccc3cc(N)cc(c23)C1=O,inactive,–
COc1ccc(OC)c(C2=NS(=O)(=O)N(C)C(C(=O)NCc3cccs3)=C2)c1,"inconclusive [activator, partial curve, poor fit]",–
CCOc1ccc(-c2c[n+]3c(n2-c2ccccc2)CCCCC3)cc1,inactive,–
CC(=O)OCCCNc1cc(Sc2ccc(C)cc2)c2nonc2c1[N+](=O)[O-],"inconclusive [activator, partial curve, poor fit]",–
CC1(C)CC[C@]2(C(=O)O[C@@H]3O[C@H](CO)[C@@H](O)[C@H](O)[C@H]3O)CC[C@]3(C)C(=CCC4[C@@]5(C)CC[C@H](O[C@@H]6O[C@H](C(=O)O)[C@@H](O[C@H]7OC[C@@H](O)[C@@H](O)[C@@H]7O)[C@H](O)[C@H]6O)C(C)(C)C5CC[C@]43C)[C@@H]2C1 (stereo not given in full),inactive,–
O=C(CSc1nnc(Cn2cnc3ccccc32)o1)c1ccccc1,"inconclusive [activator, single point]",–
N#Cc1ccccc1S(=O)(=O)N1CCN(CC(O)COc2ccccc2F)CC1 (stereo not given),"inconclusive [activator, single point]",–
CCOc1ccc(CN2CCN(C(=O)c3ccccc3)CC2)cc1,"inconclusive [activator, single point]",–
COc1ccccc1N1CCN(CCCOc2ccc(F)cc2)CC1,"inconclusive [activator, full curve, poor fit]",–
O=C(Cn1cnc2c(nnn2Cc2ccc(F)cc2)c1=O)Nc1ccc2c(c1)OCCO2,active: 16.4 µM,–
COc1cc(OC)cc(C(=O)NC(=S)NNC(=O)c2cnccn2)c1,"inconclusive [activator, partial curve, poor fit]",–
CC(C)CN(C(=O)Cn1c(C(F)(F)F)nc2ccccc21)c1c(N)n(Cc2ccccc2)c(=O)[nH]c1=O,inactive,–
Cc1cc(/C=C2\NC(=S)N(C)C2=O)ccc1N1CCCC1,inactive,–
Cc1ccc(C(=O)C(C)OC(=O)C2CC(=O)N(C3CCCCC3)C2)cc1 (stereo not given),"inconclusive [activator, partial curve, poor fit]",–
CCOC(=O)c1sc(N)c(C(=O)Nc2ccccc2)c1C,"inconclusive [activator, full curve, poor fit]",–
COc1ccc(OC)c(NC(=O)c2ccc(CN3CCc4ccccc4C3)cc2)c1,"inconclusive [activator, full curve]",–
CCOC(=O)C1=C(C)NC2=C(C1c1ccc([N+](=O)[O-])cc1)S(=O)(=O)c1ccccc12 (stereo not given),inactive,–
Cc1ccc(S(=O)(=O)N2CCCCC2)cc1C(=O)N(CCc1ccccc1)Cc1ccccc1,"inconclusive [activator, partial curve, poor fit]",–
Cc1ccc(C(=O)Nc2ccncc2)cc1S(=O)(=O)N1CCOCC1,"inconclusive [activator, partial curve, poor fit]",–
CC[C@H](C)[C@@H](CNC)NC[C@@H](Cc1ccc(O)cc1)NCC(C)(C)C,"inconclusive [activator, single point]",–
O=C(COC(=O)c1c2c(nc3ccccc13)CCN(Cc1ccccc1)C2)Nc1c(F)cccc1F,"inconclusive [activator, partial curve, poor fit]",–

Compound,Potency,"activity, positive = re-replication"
Cc1ccccc1-c1cccc([C@@H]2C[C@H]3C(CN2)CON3C)c1 (stereo not given in full),"inconclusive [activator, full curve, poor fit]",–
CCOC(=O)c1ccc(NC(=O)/C=C/c2cccs2)cc1,"inconclusive [activator, single point]",–
O=C(Nc1scc(-c2ccccc2)c1C(=O)O)c1ccccc1Cl,"inconclusive [activator, partial curve, poor fit]",–
CC(=O)N1c2ccccc2Sc2ccccc21,inactive,–
CC1Cc2ccccc2N1Cc1nc2cc(Cl)ccc2c(=O)[nH]1 (stereo not given),"inconclusive [activator, single point]",–
COc1cc(-c2nc3ccc(C)cn3c2Nc2ccc3c(c2)OCCO3)ccc1O,active: 20.6 µM,–
CCC1Sc2ccc(S(=O)(=O)Nc3ccc(OC)c(OC)c3)cc2NC1=O (stereo not given),"inconclusive [activator, single point]",–
COc1ccc(C(=O)NCCSCc2ccc(Cl)cc2)cc1OC,"inconclusive [activator, full curve, poor fit]",–
Cc1ccc(/C(N)=N/OC(=O)c2ccc3c(c2)OCO3)cc1,"inconclusive [activator, single point]",–
Cc1cc(OCC(=O)Nc2ccncc2)cc(C)c1Cl,inactive,–
COc1ccc([N+](=O)[O-])cc1NC(=S)NC(NC(=O)C(c1ccccc1)c1ccccc1)C(Cl)(Cl)Cl (stereo not given),"inconclusive [activator, partial curve, poor fit]",–
O=C(Nc1ccccc1N1CCN(c2ccccc2)CC1)c1ccccc1F,inactive,–
Cc1cc(Cl)ccc1N=c1ssnc1Cl,"inconclusive [activator, single point]",–
Cc1ccccc1Oc1nc2c(C)cccn2c(=O)c1/C=C(\C#N)C(=O)NC1CCS(=O)(=O)C1 (stereo not given),"inconclusive [activator, single point]",–
CCOC(=O)C1(CCCc2ccccc2)CCN(C2CCN(C(C)=O)CC2)CC1,inactive,–
CCCCCC(=O)Nc1ccccc1N1CCN(c2ccccc2)CC1,"inconclusive [activator, partial curve, poor fit]",–
CC(=O)Nc1ccc(Cc2ccncc2)cc1,"inconclusive [activator, single point]",–
C=CCn1c(SCC(=O)N(C)C)nc2sc3c(c2c1=O)CCC3,inactive,–
Cc1cccc(NC(=O)/C(C#N)=C/c2ccc(Sc3ccccc3)o2)c1C,active: 18.4 µM,–
CC(=O)c1c(O)ccc2c(-c3ccccc3)cc(=O)oc12,"inconclusive [activator, partial curve, poor fit]",–
CCOC(=O)c1c(C2COc3ccccc3O2)csc1NC(=O)c1ccccc1 (stereo not given),"inconclusive [activator, full curve, poor fit]",–
